# Laboratory results published in the supplement of paper PMC8728848.
# This is one part of the list.
# B1: NanI (Corynebacterium diphtheriae), C6JSW7 (protein)
# chain: MTNTLESNPMTTTTGALTITFATTCDGPLAHIPHHLDLNIIHGRIQGTTAHRRIDAEDPDGLDDGLPHHLCLSVDTTGTHLFIDGYEAFSTTQTEWFDTSELTLNPHGDLTIIDHQILNHAPTPRQARNLAPAAEPLVWFAGSHLSTRDTQRISHLTHGSLRLLMKTRGTGQGGVAFQAHTINGDLTLEIIDGTLIFSVRCHDEDYVRITAPGRWDDGQIYDVVIVCGRGATDIYVDGQQLIHSPGAAFFNDLSGELSVHIGTAASGVRLFGEVQSGMIYPHVFNHHQVQRLATVEPIATQALFDCLLDGAQSYRIPSLITTDSGVIIAGADKRVSIANDAPNDIDFVLRRSVDGGRTWQPPRTILQLPDTACVTDSVLLQDHTTGRIFAFLDQFPAGIGQPNAAFGTGFDADGNRIGHFADGSTCTMPREVDQLEASFFSDPHTAPPGIVFQHPSCHLWMLTSDDDGLTWSTPRDLTPDVKEEWMRFCGTSPGNGIQLQRDTHAGRLLIPMYYTKGDQFFAAALYSDDHGDTWHRGESPDLEMYESTLVEASDGSVLLWARNQHPSGAVAHARSTDGGHSWSQVTFNPNVPEIFSQPNALRVTNPDGIIFANASQLLPFRGRGVLRMSTNDGASWQHNRVFNPRHYVYQCMTQLPDGSIGLLWEREMQGLFFSIIPMTWIMQGYAL
# Experiments:
# Assay in all cases: glycan array binding signal (z-score within array); higher = stronger binding
# Details in all cases: glycan notation: IUPAC condensed, linker removed
# [1] = molecular target: Gal(b1-4)GlcNAc(b1-2)Man(a1-3)[Gal(b1-4)GlcNAc(b1-2)Man(a1-6)]Man(b1-4)GlcNAc(b1-4)GlcNAc
# Procedure, shortened: (§1)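 Negative Z-scores can be read as non-binding. The Z-score is calculated within each array and then averaged across arrays of one protein sequence at different concentrations or buffers and across linkers. Arrays, 3228 in all, were curated from the Consortium for Functional Glycomics database and kept only where the protein sequence was available.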
# [2] = molecular target: Gal(b1-4)GlcNAc(b1-2)Man(a1-3)[Gal(b1-4)GlcNAc(b1-2)Man(a1-6)]Man(b1-4)GlcNAc(b1-4)[Fuc(a1-6)]GlcNAc
# Procedure, shortened: as §1
# [3] = molecular target: Gal(b1-4)GlcNAc(b1-2)Man(a1-3)[Gal(b1-4)GlcNAc(b1-2)][GlcNAc(b1-4)]Man(b1-4)GlcNAc(b1-4)GlcNAc
# Procedure, shortened: as §1
# [4] = molecular target: Gal(b1-4)GlcNAc(b1-2)Man(a1-3)[GlcNAc(b1-2)Man(a1-6)]Man(b1-4)GlcNAc(b1-4)GlcNAc
# Procedure, shortened: as §1
# [5] = molecular target: Gal(b1-4)GlcNAc(b1-2)Man(a1-3)[Man(a1-6)]Man(b1-4)GlcNAc(b1-4)GlcNAc
# Procedure, shortened: as §1
# [6] = molecular target: Gal(b1-4)GlcNAc(b1-2)Man(a1-6)Man(b1-4)GlcNAc(b1-4)GlcNAc
# Procedure, shortened: as §1
# [7] = molecular target: Gal(b1-4)GlcNAc(b1-2)Man(a1-6)[GlcNAc(b1-2)Man(a1-3)]Man(b1-4)GlcNAc(b1-4)GlcNAc
# Procedure, shortened: as §1
# [8] = molecular target: Gal(b1-4)GlcNAc(b1-2)Man(a1-6)[Man(a1-3)]Man(b1-4)GlcNAc(b1-4)GlcNAc
# Procedure, shortened: as §1
# [9] = molecular target: Gal(b1-4)GlcNAc(b1-2)[Gal(b1-4)GlcNAc(b1-4)]Man(a1-3)[Gal(b1-4)GlcNAc(b1-2)Man(a1-6)]Man(b1-4)GlcNAc(b1-4)GlcNAc
# Procedure, shortened: as §1
# [10] = molecular target: Gal(b1-4)GlcNAc(b1-2)[Gal(b1-4)GlcNAc(b1-4)]Man(a1-3)[Gal(b1-4)GlcNAc(b1-2)[Gal(b1-4)GlcNAc(b1-6)]Man(a1-6)]Man(b1-4)GlcNAc(b1-4)GlcNAc
# Procedure, shortened: as §1
# [11] = molecular target: Gal(b1-4)GlcNAc(b1-2)[Gal(b1-4)GlcNAc(b1-4)]Man(a1-3)[GlcNAc(b1-4)][Gal(b1-4)GlcNAc(b1-2)Man(a1-6)]Man(b1-4)GlcNAc(b1-4)GlcNAc
# Procedure, shortened: as §1
# [12] = molecular target: Gal(b1-4)GlcNAc(b1-2)[Gal(b1-4)GlcNAc(b1-4)]Man(a1-3)[GlcNAc(b1-4)][Gal(b1-4)GlcNAc(b1-2)[Gal(b1-4)GlcNAc(b1-6)]Man(a1-6)]Man(b1-4)GlcNAc(b1-4)GlcNAc
# Procedure, shortened: as §1
# [13] = molecular target: Gal(b1-4)GlcNAc(b1-2)[Gal(b1-4)GlcNAc(b1-6)]Man(a1-6)[Gal(b1-4)GlcNAc(b1-2)Man(a1-3)]Man(b1-4)GlcNAc(b1-4)GlcNAc
# Procedure, shortened: as §1
# [14] = molecular target: Gal(b1-4)GlcNAc(b1-2)[Gal(b1-4)GlcNAc(b1-6)]Man(a1-6)[GlcNAc(b1-4)][Gal(b1-4)GlcNAc(b1-2)Man(a1-3)]Man(b1-4)GlcNAc(b1-4)GlcNAc
# Procedure, shortened: as §1
# [15] = molecular target: Gal(b1-4)GlcNAc(b1-3)Gal(b1-3)GlcNAc
# Procedure, shortened: as §1
# [16] = molecular target: Gal(b1-4)GlcNAc(b1-3)Gal(b1-4)Glc
# Procedure, shortened: as §1
# [17] = molecular target: Gal(b1-4)GlcNAc(b1-3)Gal(b1-4)GlcNAc
# Procedure, shortened: as §1
# [18] = molecular target: Gal(b1-4)GlcNAc(b1-3)Gal(b1-4)GlcNAc(b1-3)Gal(b1-4)GlcNAc
# Procedure, shortened: as §1
# [19] = molecular target: Gal(b1-4)GlcNAc(b1-3)Gal(b1-4)[Fuc(a1-3)GlcNAc(b1-6)]Gal(b1-4)Glc
# Procedure, shortened: as §1
# [20] = molecular target: Gal(b1-4)GlcNAc(b1-3)Gal(b1-4)[Fuc(a1-3)]GlcNAc(b1-3)Gal(b1-4)[Fuc(a1-3)]GlcNAc
# Procedure, shortened: as §1
# [21] = molecular target: Gal(b1-4)GlcNAc(b1-3)GalNAc
# Procedure, shortened: as §1
# [22] = molecular target: Gal(b1-4)GlcNAc(b1-3)[Gal(b1-4)GlcNAc(b1-6)]Gal(b1-4)GlcNAc
# Procedure, shortened: as §1
# [23] = molecular target: Gal(b1-4)GlcNAc(b1-3)[Gal(b1-4)GlcNAc(b1-6)]GalNAc
# Procedure, shortened: as §1
# [24] = molecular target: Gal(b1-4)GlcNAc(b1-3)[GlcNAc(b1-6)]Gal(b1-4)GlcNAc
# Procedure, shortened: as §1
# [25] = molecular target: Gal(b1-4)GlcNAc(b1-6)Gal(b1-4)GlcNAc
# Procedure, shortened: as §1
# [26] = molecular target: Gal(b1-4)GlcNAc(b1-6)GalNAc
# Procedure, shortened: as §1
# [27] = molecular target: Gal(b1-4)GlcNAc(b1-6)[Gal(b1-3)]GalNAc
# Procedure, shortened: as §1
# [28] = molecular target: Gal(b1-6)Gal
# Procedure, shortened: as §1
# [29] = molecular target: Gal3S(b1-3)GalNAc
# Procedure, shortened: as §1
# [30] = molecular target: Gal3S(b1-3)GlcNAc
# Procedure, shortened: as §1
binder,measurement,setting,value
B1,glycan array binding signal (z-score),[1],0.035
same,glycan array binding signal (z-score),[2],0.309
same,glycan array binding signal (z-score),[3],-0.256
same,glycan array binding signal (z-score),[4],-0.469
same,glycan array binding signal (z-score),[5],-0.178
same,glycan array binding signal (z-score),[6],-0.306
same,glycan array binding signal (z-score),[7],-0.274
same,glycan array binding signal (z-score),[8],-0.574
same,glycan array binding signal (z-score),[9],0.276
same,glycan array binding signal (z-score),[10],0.758
same,glycan array binding signal (z-score),[11],-0.205
same,glycan array binding signal (z-score),[12],0.081
same,glycan array binding signal (z-score),[13],8.52
same,glycan array binding signal (z-score),[14],0.019
same,glycan array binding signal (z-score),[15],0.332
same,glycan array binding signal (z-score),[16],-0.376
same,glycan array binding signal (z-score),[17],-0.586
same,glycan array binding signal (z-score),[18],-0.704
same,glycan array binding signal (z-score),[19],-0.201
same,glycan array binding signal (z-score),[20],0.005
same,glycan array binding signal (z-score),[21],0.136
same,glycan array binding signal (z-score),[22],-0.463
same,glycan array binding signal (z-score),[23],-0.3
same,glycan array binding signal (z-score),[24],-0.61
same,glycan array binding signal (z-score),[25],-0.148
same,glycan array binding signal (z-score),[26],0.855
same,glycan array binding signal (z-score),[27],-0.007
same,glycan array binding signal (z-score),[28],0.892
same,glycan array binding signal (z-score),[29],-0.364
same,glycan array binding signal (z-score),[30],-0.768
